Test results as given in PubChem BioAssay AID1259400 (National Center for Advancing Translational Sciences (NCATS), 2018).
Out of some 350,000 compounds screened, about 2,100 (0.6%) were called active. This list was built around the results that the source calls inconclusive (neither active nor inactive); the mix of calls is not that of the screen.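 How the source made its calls: active means activity change of -60% or lower, but not beyond a set lower limit; inconclusive means change between -60% and -40%, or beyond the set limit; inactive means change above -40%.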

target: Relaxin receptor 1 (Homo sapiens) (UniProt Q9HBX9); test: qHTS Assay for Antagonists of the Relaxin Receptor RXFP1; conditions: HEK293-RXFP1, relaxin-stimulated cAMP HTRF, 30 min; at 57.5 µM; stronger effect = lower value
Chain of UniProt Q9HBX9 (Q9HBX9 whole entry, looked up): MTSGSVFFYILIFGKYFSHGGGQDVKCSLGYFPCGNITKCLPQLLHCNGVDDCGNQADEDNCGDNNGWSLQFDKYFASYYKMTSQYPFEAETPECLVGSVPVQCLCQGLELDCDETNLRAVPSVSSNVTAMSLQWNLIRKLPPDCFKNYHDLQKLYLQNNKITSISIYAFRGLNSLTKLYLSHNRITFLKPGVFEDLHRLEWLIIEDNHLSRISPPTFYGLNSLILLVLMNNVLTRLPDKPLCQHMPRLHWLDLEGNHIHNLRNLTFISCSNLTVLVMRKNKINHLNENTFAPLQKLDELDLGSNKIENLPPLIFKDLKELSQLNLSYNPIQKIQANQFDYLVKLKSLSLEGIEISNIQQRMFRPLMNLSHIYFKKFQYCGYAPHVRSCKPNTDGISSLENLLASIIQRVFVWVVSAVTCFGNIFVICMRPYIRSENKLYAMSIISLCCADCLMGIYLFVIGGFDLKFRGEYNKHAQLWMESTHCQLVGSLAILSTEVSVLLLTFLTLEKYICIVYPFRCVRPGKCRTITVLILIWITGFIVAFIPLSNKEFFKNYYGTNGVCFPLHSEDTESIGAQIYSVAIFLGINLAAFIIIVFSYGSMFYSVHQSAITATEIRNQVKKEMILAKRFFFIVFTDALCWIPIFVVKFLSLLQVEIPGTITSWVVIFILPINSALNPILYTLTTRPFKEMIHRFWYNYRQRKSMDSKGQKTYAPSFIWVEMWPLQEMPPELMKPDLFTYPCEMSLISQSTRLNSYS
Excerpt: The relaxin hormone is involved in the variety of biological functions in normal tissues and diseases. The role of relaxin is well-established in female reproduction and parturition, mammary gland and endometrial development, maintenance of myometrial quiescence during pregnancy. Relaxin signaling through its G protein-coupled receptor (GPCR) RXFP1 results in ECM remodeling through regulation of collagen deposition, cell invasiveness, proliferation and overall tissue homeostasis. […] Recombinant human relaxin (rhRlx) is currently being tested in clinical trials as a protective agent in congestive heart failure, in treating severe preeclampsia, and as an anti-fibrotic agent in various organs. […] Upon relaxin binding RXFP1 activation leads to the activation of adenylate cyclase (AC) via G?s. cAMP will activate PKA, which phosphorylates many signaling proteins. Thus, detection of cAMP increase is an easy and reliable indication of relaxin receptor activation. To screen for antagonists of the relaxin receptor, a HEK293T cell line stably transfected with RXFP1 was used. RXFP1 activation by relaxin in presence of various concentrations of tested compounds was assayed by changes in cAMP levels as detected with a time-resolved fluorescence energy transfer (TR-FRET) cAMP detection kit.
For the primary screening, we used HTRF(R) (Homogenous Time-Resolved Fluorescence) cAMP HiRange assay (Cisbio Bioassays, 62AM6PEJ). Presence of cAMP in the cell lysate disrupts binding between the Cryptate-labeled anti-cAMP and d2-labeled cAMP pair, leading to a decrease in TR-FRET signal. The libraries were screened at two doses (57microM and 11microM), followed by a confirmation of the hits at 7-point serial dilution in the range of final concentrations [57microM - 78nM]. Data were normalized to the controls for basal activity (buffer only) and 100% activity (5 nM porcine relaxin). The EC50 values were determined from concentration-response data modeled with the standard Hill equation. NCGC Assay Protocol Summary: HiHEK (Hawaiian HEK293 LGR7 stably transfected with human RXFP1) were grown in the following media: DMEM+10%FBS+Pen/Strep + Geneticin (1mg/ml). For the assay, the cells were seeded in DMEM+Pen/Strep (with no serum & selective antibiotics) at 2,100 cells/ 3microl/well with MultiDrop Combi dispenser (Thermo Scientific, Logan, UT) onto white tissue culture treated solid bottom1536-well plates (Greiner #789173-F) and allowed to attach/recover overnight at 37 degrees C, 5% CO2. Next, 23nl/well of compound solutions in DMSO were transferred into wells with a pintool (Kalypsis, San Diego, CA). […] EC80 (relaxin at 50pM final concentration) was dispensed to the rest of the plate except columns 1&2 which were used as a negative control (EC0, buffer only), 1microl/well also. The cells were stimulated by relaxin in the presence of compounds for 30 minutes at 37 degrees C, 5% CO2. The detection reagents were prepared individually by dilution in Lysis buffer (supplied with the assay kit) just prior to dispensing. 1microl/well of cAMP-d2 and 1microl/well anti-cAMP-Eu3+-Cryptate antibodies were added simultaneously with BioRAPTR FRDtrade mark Workstation (Beckman Coulter). The plates were incubated at ambient temperature for 30 minutes and, then, FRET signal was read on Envision plate reader (PerkinElmer, Waltham, MA), at wavelengths 340nm (excitation), 615nm & 665nm (emission of donor and acceptor channels respectively).
On the % scale 0 is the no-effect control and ±100 the full control effect.

SMILES	activity change, negative = inhibition
CN(Cc1ccccc1)C(=O)CN1CCN(C(c2ccccc2)c2ccccc2)CC1	active: -81.4%
Cc1ccc(S(=O)(=O)Nc2ccc(C(N)=O)cc2)cc1[N+](=O)[O-]	inconclusive: -44.9%
CC(C)c1ccc(OCC(=O)Nc2cccc(C(=O)Nc3ccccc3C(=O)O)c2)cc1	active: -66.2%
COc1cccc(-c2nc(NC(C)C)c3ccccc3n2)c1O	inconclusive: -45.4%
CCN1CCN(C(c2cccs2)C(C)NC(=O)C(=O)N2CCCCC2)CC1 (stereo not drawn)	inconclusive: -40.2%
COc1ccccc1NC(=O)CSc1ccc2nnc(CCNC(=O)c3ccccc3)n2n1	inactive: -4.51%
Oc1ccc(/C=N/N2CCN(C3c4ccccc4-c4ccccc43)CC2)c(O)c1	inconclusive: -43.5%
O=C(Cn1ncc2c3ccccc3n(Cc3ccccc3)c2c1=O)NCCN1CCOCC1	inconclusive: -47.1%
O=[N+]([O-])c1ccc(C=NNC(=S)NN=Cc2ccc([N+](=O)[O-])cc2)cc1	active: -62.4%
CC1CCCCN1C(=O)COC(=O)C1CCN(S(=O)(=O)c2ccc(Cl)c(C(F)(F)F)c2)CC1 (stereo not drawn)	active: -65%
Cc1[nH]c(=O)c(C#N)c2c1COC(C)(C)C2	inactive: -13%
COCCNC(=S)Nc1ccc(S(=O)(=O)Nc2ncccn2)cc1	inconclusive: -43.2%
CCc1ccc2nc3sc(C(=O)O)cc3cc2c1	inconclusive: -50.6%
Cc1cc2oc(C(=O)N(Cc3ccccc3F)C3CCS(=O)(=O)C3)c(C)c2cc1Cl (stereo not drawn)	inconclusive: -42%
CCN(CC(=O)Nc1ccccc1Br)C1CCCCC1	inconclusive: -46.6%
CCOc1ccc(-c2cc(C(=O)N3CCN(S(=O)(=O)c4cc(Cl)ccc4OC)CC3)[nH]n2)cc1	inconclusive: -46.2%
CCCSc1nnc2c(n1)OC(c1sccc1C)Nc1ccccc1-2 (stereo not drawn)	inactive: -1.38%
CC[C@@H](C)[C@H](NC(=O)OC(C)(C)C)c1nnc(S(=O)(=O)Cc2cc(C)ccc2C)o1	-146%
CCn1c2ccccc2c2cc(/C=N/n3cnnc3)ccc21	inactive: -23.9%
CC(C)(C)c1ccc(OCCCN2CCCC2)cc1	inactive: 17.5%
O=C(c1ccc(Cn2c(=S)[nH]c3cc4c(cc3c2=O)OCO4)cc1)N1CCN(c2ccccc2)CC1	inconclusive: -41%
Brc1ccc(CN2CCN(Cc3c[nH]c4ccccc34)CC2)cc1	inconclusive: -40.2%

SMILES	activity change, negative = inhibition
COc1ccc(S(=O)(=O)c2c(C)c(NS(=O)(=O)c3ccccc3)cc(C)c2O)cc1	inconclusive: -47%
O=c1c(-c2ccc(Cl)cc2)c(C(F)(F)F)oc2c(CN3CCCCC3)c(O)ccc12	inactive: -2.83%
CC1(C)CC2(CCO1)OC(=O)CC2C(=O)Nc1cccc2ccccc12 (stereo not drawn)	inactive: 3.33%
COc1ccc(CCN2CC(C(=O)NCC(c3ccccc3)N(C)C)CC2=O)cc1OC (stereo not drawn)	active: -89.8%
CN1CCN(C2Cc3cc(Cl)ccc3Sc3cc(F)ccc32)CC1 (stereo not drawn)	inconclusive: -58.2%
CCCCOc1ccc(CN2C(=O)C(=O)c3cc(Br)cc(C)c32)cc1OC	active: -71.4%
CCCc1cc(=O)n2c(nc3ccccc32)[nH]1	inactive: 4.13%
COc1ccc(C(=O)O)cc1NC(=S)NC(=O)C(c1ccccc1)c1ccccc1	active: -116%
Cc1ccc2occ(CC(=O)Nc3ccc(Cl)c(C(F)(F)F)c3)c2c1	inactive: -18.9%
Cc1nc(OCC(C)C)c2sc3nc4c(cc3c2n1)COC(C)(C)C4	active: -103%
COc1ccc(N2C(=O)CCSC23C(=O)N(Cc2ccc(F)cc2)c2ccccc23)cc1 (stereo not drawn)	active: -82%
CCc1ccc(-n2nc(CO)c(C(=O)NCc3cccnc3)n2)cc1	inconclusive: -50.1%
COc1ccccc1N1CCN(C(=O)CCn2c(=O)[nH]c3ccccc3c2=O)CC1	inactive: -7.6%
Nc1c(C(=O)O)sc2nc(-c3ccccc3)cc(-c3ccc(Cl)cc3)c12	inconclusive: -40.5%
c1ccc2c(c1)CC/C2=N/Nc1nc2ccccc2[nH]1	inconclusive: -44.1%
CCOC(=O)c1ccccc1NC(=O)N1CC(C)Oc2ccc(C)cc21 (stereo not drawn)	inconclusive: -53.8%
O=C(c1ccccc1F)N1c2nc(-c3ccco3)nn2C2(CCCCC2)[C@@H]2CCCC[C@@H]21	active: -65.5%
COc1ccccc1N(C)S(=O)(=O)c1ccc(C(=O)Nc2ccc(N3CCOCC3)cc2)cc1	inconclusive: -41.3%
CC(C)OC(=O)c1cccnc1N1CCN(c2cccc(Cl)c2)CC1	inconclusive: -42.4%
FC(F)(F)C1=Nc2cccc3cccc(c23)N1	inconclusive: -52.4%
Cc1ccccc1N/C(SCc1ccc(Cl)cc1)=C(/C#N)C(N)=O	active: -65.6%
CC1CN(C(=S)SCC(=O)c2ccc([N+](=O)[O-])cc2)CC(C)O1 (stereo not drawn)	inactive: -13.6%

SMILES	activity change, negative = inhibition
O=C(Nc1cnc2ccccn2c1=O)c1ccc(Cl)cc1	inactive: 0.639%
Cc1cccc(-n2ncc3c(NCCCN4CCCC4=O)ncnc32)c1	inactive: -2.5%
Cc1ccc(C(=O)/C=C/c2cc(Br)cc(Br)c2O)o1	inconclusive: -49.6%
COc1ccc(-c2cc(C(C)=O)c(C)n2CCC(=O)Nc2ccc(C)c(Cl)c2)cc1	inconclusive: -40.6%
O=c1c2ccccc2sn1-c1nccs1	inconclusive: -49.5%
C#CCOc1ccc(/C=C2/C(=O)NN(c3ccccc3)C2=O)cc1OC	active: -66.6%
Cc1ccc(C)c(N=Cc2ccc(-c3ccc([N+](=O)[O-])cc3)o2)c1	inconclusive: -48.8%
O=C(NNC(=O)c1ccccn1)c1ccc(OC(F)F)cc1	inconclusive: -42.9%
CCCCC(=O)Nc1c(C(=O)N2CCN(c3ccccc3)CC2)oc2ccccc12	inconclusive: -41.1%
O=C(CCl)NC(Cc1ccccc1)c1ccccc1 (stereo not drawn)	inactive: -5.85%
CCOC(=O)c1c(NC(NC(C)=O)C(Cl)(Cl)Cl)sc2c1CCCC2 (stereo not drawn)	active: -67.9%
CN(CCCC1CCCC1)C(=O)c1cc(COc2ccc(F)cc2F)on1	inconclusive: -40.6%
Cc1ccc(C(=S)N2CCN(Cc3ccccc3)CC2)cc1	inconclusive: -44%
Cc1ccn2c(NCc3ccccc3)c(-c3cccs3)nc2c1	active: -77.4%
COc1ccc2nc(Nc3nc4ccc(NC(C)=O)cc4s3)sc2c1	inconclusive: -41.9%
CCCc1nc(SCC(=O)N2CCC(Cc3ccccc3)CC2)c2c(=O)n(C)c(=O)n(C)c2n1	inactive: 3.35%
O=C(COc1ccc(/C=N/NC(=O)C(=O)N2CCCCC2)cc1)Nc1ccccc1Cl	active: -73.1%
CC(C)C(Cl)=NOC(=O)Nc1ccc(F)cc1	inconclusive: -42.9%
O=C(Nc1ccc(Cl)cc1)c1ccc2nsnc2c1	inconclusive: -44.2%
Cc1cc(/C=C2/NC(=O)NC2=O)c(C)n1-c1ccc(N2CCOCC2)cc1	inconclusive: -52.4%
CCOCCCN(Cc1ccco1)C(=O)c1cc2c(s1)-c1c(C)cccc1OC2	inconclusive: -43.2%
COc1ccc(OC)c(NC(=O)c2nc(S(=O)(=O)Cc3ccc(F)cc3)ncc2Cl)c1	active: -107%

SMILES	activity change, negative = inhibition
CC(Oc1cccnc1[N+](=O)[O-])C(=O)Nc1ccc(F)cc1 (stereo not drawn)	inconclusive: -46%
COc1ccc(NC(=O)c2oc3ccccc3c2NC(=O)c2ccco2)c(OC)c1	inactive: 9.78%
CC(Oc1cccnc1[N+](=O)[O-])C(=O)Nc1cccc(Cl)c1 (stereo not drawn)	active: -96.9%
CSCCC(NS(=O)(=O)c1ccc(C)cc1)C(=O)Nc1ccc(C)cn1 (stereo not drawn)	inconclusive: -49.6%
CCOC(=O)C1CCN(C(=O)c2ccc(N(C)S(C)(=O)=O)cc2)CC1	inactive: 10.5%
CC[n+]1c(/C=C/N(C)c2ccccc2)n(-c2ccccc2)c2ccc(-c3nc4ccccc4s3)cc21	active: -60.5%
O=C1C=CC(=O)N1c1ccccc1N1C(=O)C=CC1=O	-182%
CC1(C)Oc2ccc3ccc(=O)oc3c2/C(=C/NNC(N)=S)C1=O	inconclusive: -44.2%
O=C(CSc1n[nH]c(-c2ccc(F)cc2)n1)N1CCN(c2ccc(F)cc2)CC1	inconclusive: -52.4%
CCCCNC(=S)Nc1ccc(C(F)(F)F)cc1	inactive: -32.5%
N#Cc1c(SCC(=O)Nc2nccs2)sc2c(O)cc(=O)[nH]c12	active: -87%
Clc1ccc(C(Cn2ccnc2)OCc2c(Cl)cccc2Cl)c(Cl)c1 (stereo not drawn)	inconclusive: -43.4%
Cc1onc(-c2ccccc2Cl)c1C(=O)Oc1ccc(Cl)cc1Cl	active: -77.7%
Nc1nonc1-n1nnc(C(=O)N/N=C/c2cccc(F)c2)c1-c1ccc2c(c1)OCO2	inconclusive: -41%
CCc1cc2c(=O)nc3n(c2s1)Cc1ccccc1/C3=C(/O)c1cccc([N+](=O)[O-])c1	inactive: 17%
CCC(C)S(=O)(=O)c1oc(-c2cccs2)nc1S(=O)(=O)c1ccccc1 (stereo not drawn)	active: -78.8%
Cc1cccc(N2CCN(C(=O)C3CCN(C(=O)c4cc5sccc5n4C)CC3)CC2C)c1 (stereo not drawn)	active: -65.3%
COc1cccc(C(=O)Nc2cccc(-c3nnc(-c4ccco4)o3)c2)c1	inconclusive: -49.4%
O=C(Nc1cccc(-c2cnc3ccccc3n2)c1)C1CC(=O)N(c2ccccc2)C1 (stereo not drawn)	active: -73.5%
NC(=O)c1c(NC(=O)C2COc3ccccc3O2)sc2c1CCN(Cc1ccccc1)C2 (stereo not drawn)	active: -97.3%
Cc1ccc(SCc2c(C(=O)N/N=C/c3cccnc3)nnn2-c2nonc2N)cc1	active: -106%
CCN1CCN(CCCNC(=O)Cn2c(-c3cccs3)cc3cc(Cl)ccc32)CC1	active: -69%
